Results published in PubChem BioAssay AID2675 (National Center for Advancing Translational Sciences (NCATS), 2010).
Out of some 280,000 compounds screened, about 100 (0.036%) were called active. Inconclusive results, whose numbers are uncertain, are shown with a selection of clear calls. The call rests on the fitted dose curve; in most records, active means well fitted inhibition curve with a large enough effect in the signal ratio, with a control signal flat (not every such curve was filed as active); inconclusive means small, poorly fitted or top-dose-only effect, or effect the other way, or a change in a side signal; inactive means no such curve, though single readings can be large or run the other way; the % refers to the signal ratio. Where the call is inconclusive, the potency comes from a doubtful curve fit. A note “side channel” means that the fit belongs to a control or component signal, not to the main read-out.

The compounds below were run against Muscleblind-like protein 1 (Homo sapiens) (UniProt Q9NR56) (assay: qHTS Assay for Inhibitors of MBNL1-poly(CUG) RNA binding). Details: TR-FRET MBNL1-His/biotin-(CUG)12 binding, 665/545 ratio; activity change, negative = inhibition: at 57.5 µM (top of the series).
Outline: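 Inhibition of protein-RNA binding appears as loss of TR-FRET between terbium anti-His antibody on MBNL1-His and streptavidin-XL665 on biotin-(CUG)12. Activity is normalized to buffer-only and uninhibited-complex controls.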
On the % scale 0 is the no-effect control and ±100 the full control effect; potency means the concentration at half of the fitted maximal effect; tags describe the fitted curve by direction and shape or compound fluorescence and quenching.

UniProt Q9NR56, sequence (Q9NR56 whole entry, looked up): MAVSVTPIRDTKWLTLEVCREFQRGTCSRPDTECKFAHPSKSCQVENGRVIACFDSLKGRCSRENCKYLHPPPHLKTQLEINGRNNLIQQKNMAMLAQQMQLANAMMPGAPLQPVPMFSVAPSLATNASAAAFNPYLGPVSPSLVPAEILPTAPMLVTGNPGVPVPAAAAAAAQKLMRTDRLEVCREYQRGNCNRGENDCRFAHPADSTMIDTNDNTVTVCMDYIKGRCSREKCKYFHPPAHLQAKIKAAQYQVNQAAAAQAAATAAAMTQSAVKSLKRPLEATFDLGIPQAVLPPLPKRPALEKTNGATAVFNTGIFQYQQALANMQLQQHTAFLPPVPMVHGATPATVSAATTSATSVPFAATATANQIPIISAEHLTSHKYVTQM

SMILES | activity change, negative = inhibition | Potency
O=C(Nc1ccc(S(=O)(=O)N2CCCC2)cc1)c1cccs1 | inactive: -1.43% | 
CCCCOC(=O)c1ccc(NC(=O)c2ccccc2OC)cc1 |  | inconclusive: 100 µM [inhibitor, single point]
Cc1cc(OCC(=O)Nc2ccc3oc(-c4ccncc4)nc3c2)ccc1Cl | inactive: -5.68% | 
COc1ccc(CNc2ccccc2)cc1Br |  | inconclusive: 5.62 µM [quencher, side channel, full curve, poor fit]
COc1cccc(C(=O)c2c[nH]c(C(=O)NCc3ccco3)c2)c1 | inactive: -1.92% | 
CCCNS(=O)(=O)c1cccc(C(=O)OCc2cc(=O)oc3cc(OC)ccc23)c1 | inactive: 108% | 
c1ccc(-n2cccc2CNC2CCCCC2)cc1 | inactive: 4.52% | 
O=C(COc1cc(Cl)ccc1Cl)Nc1nnc(CC(=O)N2CCOCC2)s1 |  | inconclusive: 3.55 µM [quencher, side channel, partial curve]
O=C(c1cc(-c2cccs2)nc2ccccc12)N1CCN(S(=O)(=O)c2cccc(F)c2)CC1 | inactive: 10.5% | 
CN(C)c1ccc(/C=C2\C(=O)Nc3ccccc32)cc1 |  | inconclusive: 10 µM [quencher, side channel, partial curve]
COc1ccc2nc3cc(Cl)ccc3c(Nc3cc(CN4CCCC4)c(O)c(CN4CCCC4)c3)c2n1 |  | inconclusive: 14.1 µM [quencher, side channel, partial curve]
COC(=O)c1cccc(NC(=O)c2ccco2)c1 |  | inconclusive: 0.891 µM [quencher, side channel, full curve, poor fit]
Cc1ccc(-c2nnc(N3CCCCC3)c3ccccc23)cc1S(=O)(=O)N(C)C | inactive: 6.15% | 
O=C(CCn1c(=O)c2ccccc2n(Cc2ccccc2)c1=O)NC1CCN(Cc2ccccc2)CC1 | inactive: -6.62% | 
O=C(NCc1cc([N+](=O)[O-])ccc1O)c1cccc(NS(=O)(=O)c2ccccc2)c1 |  | inconclusive: 12.6 µM [quencher, side channel, partial curve]
O=C(CN1C(=O)COc2ccccc21)N(Cc1cccnc1)Cc1cccc(F)c1 |  | inconclusive: 7.08 µM [quencher, side channel, single point]
Cn1c(=O)c2c(SCC(N)=O)nc(CC(C)(C)C)nc2n(C)c1=O | inactive: 0.22% | 
Cc1cccc(NC2=C(NC(=O)c3ccccc3)C(=O)c3ccccc3C2=O)c1 |  | inconclusive: 3.16 µM [quencher, partial curve]
COc1ccc(CCNC(=O)CSc2nnc3ccc(-c4cccnc4)nn23)cc1 |  | inconclusive: 20 µM [quencher, side channel, partial curve]
